{"source": "paper PMC13054468", "target": "T1, avidin, P02701", "T1 chain": "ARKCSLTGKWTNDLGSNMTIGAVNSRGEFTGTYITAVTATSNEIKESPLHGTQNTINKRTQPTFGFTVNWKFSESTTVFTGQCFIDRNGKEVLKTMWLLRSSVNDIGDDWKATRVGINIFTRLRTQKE", "assay": "native MS; modified TIMS-Q-SID-TOF; 200 mM ammonium acetate, with or without charge reduction by 20% (v/v) TEAA; 0.7 to 3 uM per complex; single charge state isolated and fragmented by surface-induced dissociation", "conditions": "remark: other sources report otherwise", "data": [{"binder": "avidin, P02701 25-152 (natural protein) ARKCSLTGKWTNDLGSNMTIGAVNSRGEFTGTYITAVTATSNEIKESPLHGTQNTINKRTQPTFGFTVNWKFSESTTVFTGQCFIDRNGKEVLKTMWLLRSSVNDIGDDWKATRVGINIFTRLRTQKE", "values": [{"measurement": "stoichiometry N", "value": 4}]}]}
